# Values joined by “and” are separate entries in the source; they are usually repeats but may differ in a detail not shown here. Equal values may be shown once.
# Target: T1, KDM4A F185A (asKDM4A) in HEK293T cells (Homo sapiens, UniProt O75164, F185A)
# T1 construct: we generated the F185A mutation in full-length KDM4A carrying all of the functional domains; host or cells: HEK293T
# T1 sequence (O75164 1-1064 F185A): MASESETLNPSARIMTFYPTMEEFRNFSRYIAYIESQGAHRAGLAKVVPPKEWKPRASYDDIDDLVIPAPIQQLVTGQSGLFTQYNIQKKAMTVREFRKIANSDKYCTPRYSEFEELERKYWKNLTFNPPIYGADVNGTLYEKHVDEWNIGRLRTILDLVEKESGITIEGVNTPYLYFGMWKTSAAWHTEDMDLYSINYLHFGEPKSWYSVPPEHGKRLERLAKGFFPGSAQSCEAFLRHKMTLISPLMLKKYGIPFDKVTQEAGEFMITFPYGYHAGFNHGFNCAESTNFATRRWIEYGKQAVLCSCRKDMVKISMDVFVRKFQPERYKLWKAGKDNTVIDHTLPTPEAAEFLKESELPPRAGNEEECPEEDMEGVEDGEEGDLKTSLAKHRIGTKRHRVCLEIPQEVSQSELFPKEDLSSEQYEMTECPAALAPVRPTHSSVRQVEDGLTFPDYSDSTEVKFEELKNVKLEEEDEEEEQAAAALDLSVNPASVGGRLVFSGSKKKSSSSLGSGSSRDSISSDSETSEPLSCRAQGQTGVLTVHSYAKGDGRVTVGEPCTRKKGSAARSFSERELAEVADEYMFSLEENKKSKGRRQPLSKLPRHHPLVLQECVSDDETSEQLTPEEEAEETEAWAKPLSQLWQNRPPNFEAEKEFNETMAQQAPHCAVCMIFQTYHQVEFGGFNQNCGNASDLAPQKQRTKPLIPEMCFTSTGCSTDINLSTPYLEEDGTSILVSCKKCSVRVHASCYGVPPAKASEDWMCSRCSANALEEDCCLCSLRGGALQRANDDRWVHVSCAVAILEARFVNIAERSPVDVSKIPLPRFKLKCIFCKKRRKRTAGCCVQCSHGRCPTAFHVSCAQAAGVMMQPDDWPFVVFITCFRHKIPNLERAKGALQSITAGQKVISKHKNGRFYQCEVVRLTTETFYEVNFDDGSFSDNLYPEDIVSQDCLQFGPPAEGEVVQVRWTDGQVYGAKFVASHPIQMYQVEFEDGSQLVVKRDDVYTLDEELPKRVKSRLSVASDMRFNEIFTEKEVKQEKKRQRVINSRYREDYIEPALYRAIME
# Test: Histone extraction, digestion and tandem mass spectrometry (relative abundance of histone modifications)
# Assay type: cell-based
# Description: HEK293T cells were transiently transfected with asKDM4A and treated with varying concentrations of 6A or 6B. […] To further confirm the activity of the enzyme–inhibitor pair, we performed tandem mass spectrometry of tryptic histones isolated from HEK293T cells expressing asKDM4A in the presence or absence of 100 μM 6A. […]
# 22. Histone extraction, digestion and tandem mass spectrometry
# HEK 293-T cells (ATCC CRL-1573) were plated into 6-well plates (Corning) in DMEM (Corning) supplemented with 10% FBS (Corning) and 1X Antibiotic/Antimycin
# (Penicillin/Streptomycin/Fungiozone) (Cytiva HyClone) in an incubator held at 37 °C with 5%
# CO2. At 75% confluency, cells were transfected with 2.5 µg KDM4A F185A or Empty Vector with 5µg Thermo Turbofect (FERR0531). After 4 hours, the media was washed and 200 µM of 6A or equivalent volume of DMSO was added and left to incubate at 37 °C for 24 hours. Cells were then washed with 1X PBS (Corning) followed by trypsinization (Gibco TrypLE™ Express Enzyme). Collected cells were centrifuged at 3000xg for 3 minutes, followed by washing with 1X PBS and centrifuged for an additional 3000xg for 3 minutes. Histone proteins were extracted from the pellet as described by25 to ensure good-quality identification and quantification of single histone marks. Briefly, cell pellets were dissolved in 100 µL of cold 0.2 M H2SO4 and incubated for 2 hours rotating in a cold room (4 °C). Aliquots were then centrifuged at 3400xg for 5 minutes […]
# at 4 °C and the supernatant was added to a fresh tube. 100% cold TCA was then added to a final volume of 33% volume/volume TCA/supernatant and left to incubate for 1 hour in a cold room (4 °C). Samples were then centrifuged at 3400xg for 5 min at 4 °C and the supernatant was discarded. The precipitate was then washed with cold acetone/0.1% HCl and centrifuged at 3400xg for 5 minutes at 4 °C. The supernatant was discarded, and the precipitate was washed with cold acetone and centrifuged at 3400xg for 5 minutes at 4 °C. The supernatant was discarded, and the pellet was dried using a vacuum centrifuge.
# The pellet was dissolved in 50 mM ammonium bicarbonate, pH 8.0, and histones were subjected to derivatization using 5 µL of propionic anhydride and 14 µL of ammonium hydroxide (all Sigma Aldrich) to balance the pH at 8.0. The mixture was incubated for 15 min and the procedure was repeated. Histones were then digested with 1 µg of sequencing grade trypsin (Promega) diluted in 50mM ammonium bicarbonate (1:20, enzyme:sample) overnight at room temperature.
# Derivatization reaction was repeated to derivatize peptide N-termini. The samples were dried in a […]
# Sample desalting: Prior to mass spectrometry analysis, samples were desalted using a 96-well plate filter (Orochem) packed with 1 mg of Oasis HLB C-18 resin (Waters). Briefly, the samples were resuspended in 100 µl of 0.1% TFA and loaded onto the HLB resin, which was previously equilibrated using 100 µl of the same buffer. After washing with 100 µl of 0.1% TFA, the samples were eluted with a buffer containing 70 µl of 60% acetonitrile and 0.1% TFA and then dried in a […]
# LC-MS/MS Acquisition and Analysis: Samples were resuspended in 10 µl of 0.1% TFA and loaded onto a Dionex RSLC […] (Thermo Scientific), coupled online with an Orbitrap Fusion Lumos (Thermo Scientific). Chromatographic separation was performed with a two-column system, consisting of a C-18 trap cartridge (300 µm ID, 5 mm length) and a picofrit analytical column (75 µm ID, 25 cm length) packed in-house with reversed-phase Repro-Sil Pur C18-AQ 3 µm resin. Peptides were separated using a 30 min gradient from 1-30% buffer B (buffer A: 0.1% formic acid, buffer B: 80% acetonitrile + 0.1% formic acid) at a flow rate of 300 nl/min.
# The mass spectrometer was set to acquire spectra in a data-independent acquisition (DIA) mode.
# [1] = peptide KSAPSTGGVKKPHR(H33_27_40), NOL-treated samples, replicates _1 and _2, listed as NOL
# [2] = peptide KSTGGKAPR(H3_9_17), NOL-treated samples, replicates _1 and _2, listed as NOL
# [3] = peptide KVLR(H4_20_23), NOL sample, replicates _1 and _2, listed as NOL
# [4] = peptide SGRGKQGGKAR(H2A1_1_11), NOL sample, replicates _1 and _2, listed as NOL
# [5] = peptide TKQTAR(H3_3_8), NOL-treated samples, replicates _1 and _2, listed as NOL
# [6] = peptide YQKSTELLIR(H3_54_63), NOL-treated samples, replicates _1 and _2
# [7] = unmod(H1_1_35), NOL sample, replicates _1 and _2
# [8] = unmod(H1_54_81), NOL sample, replicates _1 and _2
# [9] = unmod(H2A_1_88) variant share, F185A cells treated with NOL, replicates _1, _2, listed as NOL
smiles,measurement,setting,value
"CC(C)CC(NC(=O)C(=O)O)C(=O)O (stereo not drawn) [compound 6, N-oxalyl leucine]",Ratio H33_27_40 K27me3S28ph,"peptide KSAPSTGGVKKPHR(H33_27_40), NOL-treated samples, replicates _1 and _2",0
same,Ratio H33_27_40 K27me1,[1],0.03588 and 0.02549
same,Ratio H33_27_40 K27me1K36me1,[1],0.04799 and 0.03537
same,Ratio H33_27_40 K27me1K36me2,[1],0.1098 and 0.111
same,Ratio H33_27_40 K27me1K36me3,[1],0.02104 and 0.03377
same,Ratio H33_27_40 K27me2,[1],0.08498 and 0.06535
same,Ratio H33_27_40 K27me2K36me1,[1],0.1416 and 0.09735
same,Ratio H33_27_40 K27me2K36me2,[1],0.2427 and 0.3114
same,Ratio H33_27_40 K27me3,[1],0.05703 and 0.02721
same,Ratio H33_27_40 K27me3K36me1,[1],0.02034 and 0.008575
same,Ratio H33_27_40 K27me3K36me2,[1],0.04135 and 0.06259
same,Ratio H33_27_40 K36me1,[1],0.02463 and 0.01515
same,Ratio H33_27_40 K36me2,[1],0.05863 and 0.05349
same,Ratio H33_27_40 K36me3,[1],0.01575 and 0.03587
same,Ratio H33_27_40 unmod,[1],0.0968 and 0.08026
same,Ratio H3_9_17 K9ac,[2],0.002877 and 0.002982
same,Ratio H3_9_17 K9acS10phK14ac,[2],4e-6 and 6e-6
same,Ratio H3_9_17 K9me1K14ac,[2],0.08639 and 0.06409
same,Ratio H3_9_17 K9me2,[2],0.221 and 0.1719
same,Ratio H3_9_17 K9me2K14ac,[2],0.1958 and 0.3126
same,Ratio H3_9_17 K9me2S10phK14ac,[2],0.001247 and 0.000958
same,Ratio H3_9_17 K9me3,[2],0.1049 and 0.1007
same,Ratio H3_9_17 K9me3K14ac,[2],0.04906 and 0.08096
same,Ratio H3_9_17 K9me3S10ph,[2],0.001779 and 0.002103
same,Ratio H3_9_17 K14ac,[2],0.08363 and 0.1154
same,Ratio H3_9_17 unmod,[2],0.0977 and 0.1183
same,Ratio H4_20_23 K20me1,[3],0.4844 and 0.3612
same,Ratio H4_20_23 K20me2,[3],0.1012 and 0.2416
same,Ratio H4_20_23 K20me3,[3],0.03481 and 0.03641
same,Ratio H4_20_23 unmod,[3],0.3766 and 0.3482
same,Ratio H4_40_45 unmod,"peptide RGGVKR(H4_40_45), NOL sample, replicates _1 and _2, listed as NOL",1 and 0.9996
same,Ratio H2A1_1_11 K5ac,[4],0.134 and 0.1299
same,Ratio H2A1_1_11 unmod,[4],0.6208 and 0.8483
same,Ratio H3_3_8 K4me1,[5],0.1039 and 0.09374
same,Ratio H3_3_8 unmod,[5],0.8936 and 0.892
same,Ratio H3_54_63 K56ac,"peptide YQKSTELLIR(H3_54_63), NOL sample, replicates _1 and _2",0
same,Ratio H3_54_63 K56me2,[6],0
same,Ratio H3_54_63 K56me3,[6],0
same,Ratio H3_41_49 unmod,"peptide YRPGTVALR(H3_41_49), NOL-treated samples, replicates _1 and _2, listed as NOL",1 and 0.9983
same,Ratio H1_1_35 H11.SETAPVAQAASTATEKPAAAKKTKKPAKAAAPR,[7],0
same,Ratio H1_1_35 H13.SETAPAAPAAPAPVEKTPVKKKAKKTGAAAGKR,[7],0
same,Ratio H1_1_35 H15.SETAPAETAAPAPVEKSPAKKKTTKKAGAAKR,[7],0
same,Ratio H1_54_81 H11.SGVSLAALKKSLAAAGYDVEKNNSR,[8],0
same,Ratio H1_54_81 H15.GGVSLPALKKALAAGGYDVEKNNSR,[8],0
same,Ratio H1_54_81 H1v234.SGVSLAALKKALAAAGYDVEKNNSR,"unmod(H1_54_81), NOL sample, replicates _1 and _2, listed as NOL",1 and 0.6593
same,Ratio H2A_1_88 H2A14s.HLQLAIR,[9],0.8513 and 0.9512
same,Ratio H2A_1_88 H2AX.GKTGGKAR,[9],0.01888 and 0.009712
same,Ratio H2B_1_29 1B.PEPSKSAPAPKKGSKKAISKAQKKDGKKR,"unmod(H2B_1_29), F185A cells treated with NOL, replicates _1, _2",0

# Reference: article PMC11783601, “Analogue-Sensitive Inhibition of Histone Demethylases Uncovers Member-Specific Function in Ribosomal Protein Synthesis” (Journal of the American Chemical Society, 2025)
